# Source: PMC4336329 (PLoS ONE, 2015)
# About 14,000 (4.5%) of roughly 310,000 compounds showed an effect of 50% or more. The effect is printed as a negative number. This is one part of the list.
# Biological target: human ether-à-go-go-related gene (hERG) potassium channel (human, UniProt Q12809)
# Assay: primary screen, population patch clamp on CHO cells stably expressing hERG
# 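Also: peak tail current of the secondary pulse compared with the same well before compound.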
# Chain of human ether-à-go-go-related gene (hERG) potassium channel (Q12809 whole entry, looked up): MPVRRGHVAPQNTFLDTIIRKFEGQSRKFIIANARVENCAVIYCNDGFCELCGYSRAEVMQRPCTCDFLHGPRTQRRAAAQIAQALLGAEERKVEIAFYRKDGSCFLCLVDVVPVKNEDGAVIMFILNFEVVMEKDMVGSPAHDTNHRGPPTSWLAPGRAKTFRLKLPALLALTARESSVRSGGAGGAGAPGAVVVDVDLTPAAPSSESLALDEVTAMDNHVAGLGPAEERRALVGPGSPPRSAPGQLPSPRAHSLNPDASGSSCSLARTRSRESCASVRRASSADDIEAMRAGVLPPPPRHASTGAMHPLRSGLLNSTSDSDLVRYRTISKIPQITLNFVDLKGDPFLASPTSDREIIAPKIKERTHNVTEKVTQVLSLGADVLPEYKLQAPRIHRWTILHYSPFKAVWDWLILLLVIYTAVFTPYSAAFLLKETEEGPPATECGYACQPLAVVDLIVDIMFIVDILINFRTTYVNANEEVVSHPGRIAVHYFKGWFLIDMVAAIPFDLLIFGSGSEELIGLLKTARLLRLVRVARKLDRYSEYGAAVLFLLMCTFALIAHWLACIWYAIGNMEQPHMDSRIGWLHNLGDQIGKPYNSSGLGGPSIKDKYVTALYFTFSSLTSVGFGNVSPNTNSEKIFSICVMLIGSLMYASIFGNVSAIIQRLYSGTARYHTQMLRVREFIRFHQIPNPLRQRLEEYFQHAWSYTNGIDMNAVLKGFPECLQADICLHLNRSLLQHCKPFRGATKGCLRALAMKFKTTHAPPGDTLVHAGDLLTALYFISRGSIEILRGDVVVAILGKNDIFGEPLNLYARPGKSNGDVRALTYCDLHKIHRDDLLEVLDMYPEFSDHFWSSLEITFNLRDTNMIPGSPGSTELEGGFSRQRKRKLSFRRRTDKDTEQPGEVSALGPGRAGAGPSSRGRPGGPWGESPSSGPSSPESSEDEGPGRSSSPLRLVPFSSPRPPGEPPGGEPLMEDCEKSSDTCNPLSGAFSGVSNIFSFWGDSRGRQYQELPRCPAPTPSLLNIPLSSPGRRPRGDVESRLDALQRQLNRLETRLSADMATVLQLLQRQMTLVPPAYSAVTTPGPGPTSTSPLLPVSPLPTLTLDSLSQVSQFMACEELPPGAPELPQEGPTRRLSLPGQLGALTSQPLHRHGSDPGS
row,SMILES,"hERG current change (%, negative = inhibition) at 10uM [%]"
1,CCOc1ccccc1NC(=S)NC(=O)C1CC1,15.9
2,O=C(Nc1ccc(F)cc1)N(Cc1cccs1)Cc1cc2cc3c(cc2[nH]c1=O)OCO3,15.1
3,O=C(c1ccc(N2CCOCC2)cc1[N+](=O)[O-])N1CCOCC1,2.97
4,CCSc1nc2ccccc2c(=O)n1OCC(=O)OC,6.32
5,CCCCn1c(N)c(N(CCOC)C(=O)C2CCN(S(=O)(=O)c3ccccc3)CC2)c(=O)[nH]c1=O,-3.64
6,NC(=O)C1CCCN(C(=O)c2ccc(NC(=O)c3cccs3)cc2)C1 (centres unmarked),2.82
7,COc1ccc(-c2c(C)nn3c(N4CCN(Cc5ccccc5)CC4)cc(C)nc23)cc1OC,9.35
8,COc1ccccc1/C=C/C(=O)NC(=S)N1CCOCC1,15.9
9,CCn1nnc(NC(=O)c2cc3ccccc3o2)n1,4.36
10,OCC[C@@H]1C[C@@H](O)[C@H](O)[C@@]2(Cc3ccccc3CCO2)O1,11
11,CCCCC(=O)Nc1ccc(N2CCCC2)cc1,-3.21
12,Cc1[nH]c2ccccc2c1C(c1ccncc1)N1CCN(c2ccc(F)cc2)CC1 (centres unmarked),6.47
13,Cn1c(=O)n(C)c2cc(NS(=O)(=O)c3ccc(Br)s3)ccc21,-3.63
14,C/C(Cc1ccccc1)=N\NC(=O)C1CCCCC1,12.5
15,CCOC(=O)C1=C(C)N(CCCC(=O)O)C(=O)NC1c1ccccc1OS(=O)(=O)c1ccccc1[N+](=O)[O-] (centres unmarked),16.8
16,Cc1cccc(C(=O)O[C@@H]2[C@H](Cc3ccccc3)NS(=O)(=O)[C@H]3C[C@@H]4C=C[C@]23O4)c1,6.14
17,O=C(O)Cc1ccc(NS(=O)(=O)c2ccccc2Br)cc1,15.8
18,COc1cc(/C=N/NC(N)=S)ccc1OCc1ccc(C)cc1,-10.1
19,CC(C)n1cc(/C=N/Nc2ccc(Cl)c(C(=O)O)c2)c2ccccc21,14.7
20,O=C(CSc1nncc2ccccc12)Nc1ccccc1,-15.1
21,CC(C)CN(C(=O)COC(=O)c1ccc(Br)cc1)c1c(N)n(Cc2ccccc2)c(=O)[nH]c1=O,-2.83
22,CC(=O)N1CCN(c2ccc(NC(=O)c3cccc(Cl)c3)cc2)CC1,-7.02
23,Cc1cccc(NC(=S)NC2CCCC2)c1C,7.79

row,SMILES,"hERG current change (%, negative = inhibition) at 10uM [%]"
1,N=C(N)Cc1ccccc1Sc1ccccc1.O=C(O)/C=C\C(=O)O,-1.09
2,CCOC(=O)c1c2n(c3ccc(O)cc13)CCC2,21.1
3,Cc1ccc(C)c(-c2csc(NC(=O)C3=COCCO3)n2)c1,-19.2
4,CCOC(=O)C(CCCCCOc1ccccc1[N+](=O)[O-])C(=O)OCC,-8.54
5,COc1cc(Br)c(-c2sc(Nc3ccccc3)n[n+]2-c2ccc(F)cc2)cc1OC.[Cl-],-37.1
6,Cc1cc(=O)[nH]c(=S)[nH]1,14.9
7,COc1ccc(C(=O)NCC(=O)N/N=C/c2ccc([N+](=O)[O-])o2)cc1OC,-44.3
8,CC(C)c1cc(C(N)=O)c(NC(=O)c2cccc(COc3ccc(Cl)cc3)c2)s1,3.76
9,COc1ccc(/C=C2/SC(=O)N(CCNC(=O)CC(NC(C)=O)c3ccccc3)C2=O)cc1 (centres unmarked),-3.85
10,OCCN(CCO)Cc1ccc(Br)cc1,-3.79
11,Br.Cc1ccccc1Cn1ccc(=NCc2ccccc2)cc1,-3.72
12,O=C(CSc1ccccn1)Nc1ccc(Br)cn1,-4.31
13,CCCNC(=O)c1cccc(C(F)(F)F)c1,7.54
14,O=C(c1ccc(S(=O)(=O)Nc2ccccc2)cc1)N1CCCC(C(F)(F)F)C1 (centres unmarked),-3.39
15,CCOCCCNC(=O)c1ccc(OC)cc1,24.1
16,COc1ccc(NC(=O)CCC(=O)N/N=C/c2cn(C)nc2C)cc1,11.8
17,O=C(O)CNC(=O)c1ccc(Oc2c(F)c(F)c(Oc3ccc(C(=O)NCC(=O)O)cc3)c(F)c2F)cc1,-1.38
18,Cc1ccc(/C=N/NC(=O)c2ccc(-n3cnnn3)cc2)cc1,13.8
19,COc1cccc(N(C(=O)c2snc(C(N)=O)c2N)C(C(=O)NCC2CCCO2)c2c[nH]c3ccccc23)c1 (centres unmarked),-10.7
20,c1ccc(-c2csc(N3CCSCC3)n2)cc1,4.17
21,CC(c1ccccn1)N(CCN(C)C)C(=S)Nc1ccccc1F (centres unmarked),-18.4
22,CCOC(=O)N1CCN(S(=O)(=O)c2cc(OCC(=O)NC3CCCCC3)c(C)cc2Cl)CC1,-24.7
23,O=[N+]([O-])c1ccc(O)c2cccnc12,9.81

row,SMILES,"hERG current change (%, negative = inhibition) at 10uM [%]"
1,CN(Cc1ccccc1)C(=O)COc1ccc(-c2nnco2)cc1,8.85
2,COc1ccc(C(=O)Nc2nnc(SCC(=O)NCC3CCCO3)s2)cc1OC (centres unmarked),21.4
3,CC(C)(C)c1ccc(OCCNCc2ccccc2)cc1.O=C(O)C(=O)O,-2.69
4,CCCOC1CCCN(C(=O)c2ccc(OC)c(OC3CCN(C(C)C)CC3)c2)C1 (centres unmarked),-5.71
5,C/C(=N\NS(=O)(=O)c1ccc(C)cc1)c1cc2ccccc2oc1=O,-13.5
6,O=Cc1cc2ccccc2nc1SCc1ccc(Cl)c(Cl)c1,1.55
7,Cc1ccc(S(=O)(=O)N2CCN(C(=O)CSc3nc(N)cc(=O)[nH]3)CC2)c(C)c1,18.2
8,CC(=O)N1CCN(C(=O)COC(=O)CNC(=O)c2ccccc2C)CC1,13.6
9,COC(=O)Cc1[nH]nc2c1C(c1cccc(OC)c1OC)C(C#N)=C(N)O2 (centres unmarked),11.2
10,O=C(c1ccc2c(c1)N(Cc1ccc(F)cc1)C(=O)c1ccccc1S2(=O)=O)N1CCN(c2ccccn2)CC1,7.45
11,CCCN(CC(=O)Nc1ccccc1OC)C(=O)c1ccc(=O)[nH]c1,6.8
12,COc1ccc(Br)cc1CN(C)C(=O)CNC(=O)c1ccc2ccccc2c1,10.6
13,COc1ccccc1OCC(=O)Nc1ccc2c(c1)OCCO2,4.57
14,Cc1c(NC(=S)NCc2ccc(F)cc2)cccc1[N+](=O)[O-],10.2
15,CC(C)CC(=O)Nc1ccnn1C1CCN(C(=O)c2ccc(Cl)cc2F)CC1,-30.4
16,CC(C)c1ccc(CN2CCN(S(=O)(=O)c3ccc(Cl)s3)CC2)cc1,-3.1
17,CC(C)(C)C1COc2ccccc2N1C(=O)c1ccccc1Cl (centres unmarked),10.5
18,CC(C)(C)C(=O)NC(NC(=S)Nc1ccc(S(N)(=O)=O)cc1)C(Cl)(Cl)Cl (centres unmarked),3.64
19,O=C(NC(=S)N1CCCC1)c1ccccc1F,6.7
20,CCNC(=O)NC(C(=O)OC)C12CC3CC(CC(C3)C1)C2 (centres unmarked),7.99
21,Cc1cc(N2C(=O)Cc3ccccc3C2=O)ccc1C(C)C,-15.6
22,CCCCNC(=O)CO/N=C(\C)c1cc2ccccc2o1,-2.51
23,C/C(CC(=O)Nc1ccc(Cl)cc1Cl)=N\NC(=O)C(=O)N1CCCC1,4.17

row,SMILES,"hERG current change (%, negative = inhibition) at 10uM [%]"
1,O=C1CCCCCN1CP(=O)(O)CN1CCCCCC1=O,12
2,O=C(NCc1cccs1)C1CC(c2ccc(Cl)cc2)=NO1 (centres unmarked),13.9
3,O=C(COC(=O)CN1C(=O)NC2(CCCC2)C1=O)Nc1c(Cl)cccc1C(F)(F)F,9.8
4,CCOC(=O)NC(Nc1ccc(C)cn1)(C(F)(F)F)C(F)(F)F,12.3
5,N#Cc1ccccc1NC(=S)Nc1ccc(F)cc1,16.2
6,COc1ccc(N2CCN(C3CCCN(S(=O)(=O)c4ccccc4)C3)CC2)cc1 (centres unmarked),-31.1
7,O=C(Oc1ccccc1-c1nnco1)c1ccc(Cl)cc1,-8.74
8,CCOc1ccc(Br)cc1S(=O)(=O)Nc1ccc(C(=O)OC(C)C(=O)N(C)c2ccccc2)cc1 (centres unmarked),12.6
9,O=c1[nH]c2cccnc2c2ccsc12,15
10,Nc1sc2c([n+]1CCCS(=O)(=O)[O-])CCCC2,22.3
11,Cc1c(CC(=O)O)c(=O)oc2c(C)c(OCc3ccccc3Br)ccc12,7.13
12,COc1ccc(C(=O)NC2CCN(C(=O)NC3CCCCC3)CC2)cc1,10.1
13,CC(C)C(=O)Nc1ccc(S(=O)(=O)N2CCC(c3nc4ccccc4[nH]3)CC2)cc1,-42.7
14,CCCCCCC(=O)Nc1nc(C)c(-c2csc(Nc3cc(OC)ccc3OC)n2)s1,8.99
15,O=[N+]([O-])c1cccnc1N1CCN(c2ccc(F)cc2)CC1,-22.8
16,O=C(Nc1cccc(-c2cccc(F)c2)c1)C1CCN(C2CCOCC2)CC1,-75
17,CC1CCCCN1C(=O)Cn1nnc(-c2cccnc2)n1 (centres unmarked),13.1
18,CCOc1cc2c(cc1OCC)C(c1ccccc1)N(c1ccc(C(=O)O)cc1)C(=O)C2 (centres unmarked),3.43
19,Cc1cc(C(F)(F)F)nn1CC(=O)Nc1ccc(Br)c2cccnc12,-13.2
20,CCC(=NCCN1CCCCC1)c1c(O)n(C)c(=O)n(C)c1=O,-0.146
